# Assay results: publication PMC4336329 (PLoS ONE, 2015)
# The whole screen tested about 310,000 compounds, of which about 14,000 (4.5%) showed an effect of 50% or more. Effects have a minus sign here. This is one part of the list.
# Biological target: human ether-à-go-go-related gene (hERG) potassium channel (human, UniProt Q12809)
# Test: primary screen, population patch clamp on CHO cells stably expressing hERG
# 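Note: peak tail current of the secondary pulse compared with the same well before compound.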
# Sequence of human ether-à-go-go-related gene (hERG) potassium channel (Q12809 whole entry, looked up): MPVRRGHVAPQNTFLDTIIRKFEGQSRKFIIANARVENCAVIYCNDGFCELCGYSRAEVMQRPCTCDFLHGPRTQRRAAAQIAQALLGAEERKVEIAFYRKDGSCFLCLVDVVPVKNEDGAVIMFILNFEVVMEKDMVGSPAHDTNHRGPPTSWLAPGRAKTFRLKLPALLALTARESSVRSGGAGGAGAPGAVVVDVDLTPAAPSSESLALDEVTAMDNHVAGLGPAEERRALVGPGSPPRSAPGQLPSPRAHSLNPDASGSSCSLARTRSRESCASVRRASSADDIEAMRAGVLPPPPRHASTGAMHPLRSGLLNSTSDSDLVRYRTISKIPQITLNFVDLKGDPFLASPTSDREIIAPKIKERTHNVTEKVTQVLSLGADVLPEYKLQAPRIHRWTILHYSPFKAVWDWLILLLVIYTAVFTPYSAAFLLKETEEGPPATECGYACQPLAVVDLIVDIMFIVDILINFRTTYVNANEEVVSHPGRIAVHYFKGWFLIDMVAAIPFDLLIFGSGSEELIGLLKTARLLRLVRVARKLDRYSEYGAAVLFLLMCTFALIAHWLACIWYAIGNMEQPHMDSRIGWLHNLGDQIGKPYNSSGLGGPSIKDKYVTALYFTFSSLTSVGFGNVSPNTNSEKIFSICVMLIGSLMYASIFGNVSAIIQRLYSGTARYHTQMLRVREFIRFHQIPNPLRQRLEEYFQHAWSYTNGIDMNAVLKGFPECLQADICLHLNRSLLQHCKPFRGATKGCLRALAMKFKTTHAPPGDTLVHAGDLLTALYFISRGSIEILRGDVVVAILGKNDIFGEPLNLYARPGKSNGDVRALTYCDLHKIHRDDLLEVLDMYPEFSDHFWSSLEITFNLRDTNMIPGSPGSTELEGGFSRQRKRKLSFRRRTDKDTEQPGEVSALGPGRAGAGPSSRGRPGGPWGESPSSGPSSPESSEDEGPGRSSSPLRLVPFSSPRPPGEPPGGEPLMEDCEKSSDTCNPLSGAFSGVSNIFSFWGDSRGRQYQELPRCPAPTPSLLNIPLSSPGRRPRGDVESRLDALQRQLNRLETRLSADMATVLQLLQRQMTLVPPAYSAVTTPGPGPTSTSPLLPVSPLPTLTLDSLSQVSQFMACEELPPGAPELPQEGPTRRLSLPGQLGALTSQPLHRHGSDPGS
row,Structure (SMILES),"hERG current change (%, negative = inhibition) at 10uM"
1,CN(C)c1ccc(NC(=O)c2ccc(N3CCOCC3)nc2)cc1,3.42%
2,COc1cccc(C(C(=O)NC2CCCC2)N(Cc2ccccc2OC)C(=O)c2ccco2)c1 (centres unmarked),-0.597%
3,CCOC(=O)CC(=O)c1sc2c(c1N)c(=O)[nH]c(=O)n2-c1ccc(OC)cc1,15.2%
4,O=S1(=O)NC(=NC2CCCCCC2)c2ccccc21,-3.31%
5,CCOC(=O)[C@@H]1[C@H]2COc3ccccc3[C@@H]2N2C(=O)N(c3cccc(Cl)c3)C(=O)[C@]12C,-14.2%
6,CC1=CC(C)(C)[N+](C)(C)c2ccccc21.[I-],55.3%
7,COC(=O)C1CCN(C(=O)c2cc(S(=O)(=O)N3CCCCC3)ccc2Cl)CC1,-7.02%
8,Cc1c(Cl)cccc1NC(=O)CSc1sc2c(O)cc(=O)[nH]c2c1C#N,-2.45%
9,CCOC(=O)c1sc(NC(=S)NC(=O)c2ccccc2)nc1C,7.84%
10,Cc1cc(C(=O)CSc2nnc(C3CC3)n2C2CC2)c(C)n1C(C)C,-0.454%
11,Cn1c(/C=C/c2ccccc2[N+](=O)[O-])nc2ccccc2c1=O,5%
12,Cc1ccc(S(=O)(=O)N2CCOCC2)cc1-c1n[nH]c(=S)n1-c1ccccc1,23.2%
13,CC(=O)Oc1ccc2c(c1)cc(C)n2C,-5.62%
14,Cc1ccc(C)c(NC(=O)COC(=O)CNC(=O)C2CCCCC2)c1,-12.9%
15,COC(=O)C1=C(C)Nc2ccc(C)cc2S1,-4.56%
16,Cc1occc1C(=O)N/N=C/C(Br)=C\c1ccccc1,7.98%
17,CCN(CCCNS(=O)(=O)c1ccc2c(c1)oc(=O)n2C)c1cccc(C)c1,-4.37%
18,COc1ccc(S(=O)(=O)N2CCC(NC(=O)Nc3ccc(C)cc3)CC2)cc1,-0.961%
19,CC(c1nccs1)N(C)c1nc2nonc2nc1NC1CC1 (centres unmarked),1.23%
20,COc1ccc(N2CC(NC(=O)N3CCc4ccccc43)CC2=O)cc1OC (centres unmarked),-12.8%
21,Cc1cc(C)c2nc(SCC(=O)NNC(=O)c3ccco3)c(C)cc2c1,27.2%
22,CC(=O)Nc1ccc(S(=O)(=O)N(C2=NCC(C)S2)c2ccccc2)cc1 (centres unmarked),-13.4%

row,Structure (SMILES),"hERG current change (%, negative = inhibition) at 10uM"
1,CN(c1ccc(OCC(=O)N2CCC(C(N)=O)CC2)cc1)S(=O)(=O)c1cccs1,5.46%
2,Nc1ccccc1Nc1cc(-c2ccccc2)nn1-c1cccc(Cl)c1,20.3%
3,COc1ccc(/C=C2/SC(=S)N(n3c(C)ccc3C)C2=O)cc1,5.23%
4,CC1(C)Cc2nc3scc(NC(=O)c4ccccc4)c3cc2CO1,-0.679%
5,C=CCOCC(O)CS(=O)(=O)Cc1ccc(Cl)cc1 (centres unmarked),4.57%
6,CC1Cc2ccccc2N1C(=O)CSC1=NCCS1 (centres unmarked),4%
7,Cc1c(NC(=O)c2ccco2)cccc1C(=O)NN1C(=O)c2ccccc2C1=O,16.4%
8,Cc1cccc(-c2oc3ccccc3c2-c2ccc3c(c2)OCO3)c1,31.3%
9,CC(C)(C)OC(=O)NCCCCC1=CC2=CC(=O)C(C)(OC(=O)c3ccco3)C(=O)C2=CO1 (centres unmarked),2.05%
10,Cc1ccc(C(=O)COC(=O)CCN2C(=O)C3C4C=CC(C5CC45)C3C2=O)cc1 (centres unmarked),-39.9%
11,Cc1onc(-c2ccccc2)c1C(=O)N=C(N)c1ccc(Cl)cc1,15.6%
12,CCCc1cnc(N2CCN(C(=O)c3ccc(F)cc3)CC2)nc1,-43.1%
13,CCC(c1nnnn1Cc1ccc2c(c1)OCO2)N1CCN(c2ccc(F)cc2)CC1 (centres unmarked),-9.29%
14,CCN(C(=O)CSc1nnc(-c2ccccc2Cl)n1C1CCCC1)C1CCS(=O)(=O)C1 (centres unmarked),6.77%
15,O=C1C2C3C=CC(C4CC34)C2C(=O)N1/N=C/c1ccc(-c2cccc([N+](=O)[O-])c2)o1 (centres unmarked),-14.1%
16,CCC(=O)c1ccc(OCC(=O)N(CC)CC(=O)Nc2ccccc2OC)cc1,-30.1%
17,Cc1cccc(NC(=O)CCCN2C(=O)c3ccccc3C2=O)n1,2.84%
18,CN1CCN(Cc2nc3ccccc3c(=O)n2Cc2nc(-c3ccccc3F)cs2)CC1,-71%
19,CC(=O)Nc1ccc(NC(=O)Cc2ccc(F)cc2)cc1,15.2%
20,C=CCNC(=O)CC(=O)N/N=C/c1cccs1,-8.58%
21,CCn1ccnc1CN(C)C(=O)C1CCC(=O)N(Cc2cccc(F)c2)C1 (centres unmarked),-11.9%
22,COc1ccc(-c2csc3nc(C)n(-n4cccc4)c(=O)c23)cc1OC,2.78%
